A lower IC50 marks a more sensitive line; fits outside the tested doses are given as limits. AUC, from the same fit, is the share of area under the viability curve across the 256-fold dose range; values near 1 show little effect. For part of these data: Any top dose called inferred comes from the curve model; the source does not state it. For part of these data: Drugs with an entry number were screened twice under separate entries, and the two screens often disagree.
Key:
Assay in all cases: Viability of human cancer cell lines after 72 h of drug (GDSC screen)
Tamoxifen = compound: CC/C(=C(\c1ccccc1)c1ccc(OCCN(C)C)cc1)c1ccccc1 [Tamoxifen]; settings: top dose 5 µM
Description: (§1)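 Human cancer cell lines in 384-well plates, medium with 10% serum, drug for 72 h over a 256-fold dose range (nine 2-fold or five 4-fold steps up to the top dose). Adherent lines were fixed and stained with the nucleic acid dye Syto60, suspension lines read with resazurin; signal relative to control wells, capped at 0 and 100%. One two-parameter sigmoid per drug and line, fitted in a mixed model over all curves with the slope shared within a line.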

Elesclomol = compound: CN(NC(=O)CC(=O)NN(C)C(=S)c1ccccc1)C(=S)c1ccccc1 [Elesclomol]; settings: top dose 0.2 µM; top dose inferred
Description: as §1

LAQ824 = compound: O=C(/C=C/c1ccc(CN(CCO)CCc2c[nH]c3ccccc23)cc1)NO [LAQ824]; settings: top dose 1.024 µM; top dose inferred
Description: as §1

HG-5-88-01 = compound: COc1cc(N2CCC(C(N)=O)CC2)ccc1Nc1nc(N)c(Cl)c(Nc2ccccc2S(=O)(=O)C(C)C)n1 [HG-5-88-01]; settings: top dose 10 µM; top dose inferred
Description: as §1

Masitinib = compound: Cc1ccc(NC(=O)c2ccc(CN3CCN(C)CC3)cc2)cc1Nc1nc(-c2cccnc2)cs1 [Masitinib]; settings: top dose 20 µM
Description: as §1

NSC-87877 = compound: O=S(=O)(O)c1ccc2cc(N=Nc3cc(S(=O)(=O)O)c4cccnc4c3O)ccc2c1 [NSC-87877]; settings: top dose 16 µM; top dose inferred
Description: as §1

BX-912 = compound: O=C(Nc1cccc(Nc2ncc(Br)c(NCCc3cnc[nH]3)n2)c1)N1CCCC1 [BX-912]; settings: top dose 10.24 µM; top dose inferred
Description: as §1

Bleomycin = compound: Cc1c(N)nc([C@H](CC(N)=O)NC[C@H](N)C(N)=O)nc1C(=O)N[C@H](C(=O)N[C@H](C)[C@@H](O)[C@H](C)C(=O)N[C@H](C(=O)NCCc1nc(-c2nc(C(=O)NCCC[S+](C)C)cs2)cs1)[C@@H](C)O)[C@@H](OC1OC(CO)C(O)C(O)C1OC1OC(CO)C(O)C(OC(N)=O)C1O)c1cnc[nH]1 [Bleomycin]
Description: as §1

OSI-930 = compound: O=C(Nc1ccc(OC(F)(F)F)cc1)c1sccc1NCc1ccnc2ccccc12 [OSI-930]; settings: top dose 10.24 µM
Description: as §1

VNLG/124 = compound: CCCC(=O)OCc1ccc(OC(=O)/C=C(C)/C=C/C=C(C)/C=C/C2=C(C)CCCC2(C)C)cc1 [VNLG/124]; settings: top dose 5.12 µM; top dose inferred
Description: as §1

[1] = top dose 50 µM, screen: GDSC drug entry 1378, top dose inferred
[2] = top dose 64 µM, screen: GDSC drug entry 190

Cell Line	AUC (Tamoxifen)	IC50 (Tamoxifen) [µM]	AUC (Elesclomol)	IC50 (Elesclomol) [µM]	AUC (LAQ824)	IC50 (LAQ824) [µM]	AUC (HG-5-88-01)	IC50 (HG-5-88-01) [µM]	AUC (Masitinib)	IC50 (Masitinib) [µM]	AUC (NSC-87877)	IC50 (NSC-87877) [µM]	AUC (BX-912)	IC50 (BX-912) [µM]	AUC (Bleomycin; [1])	IC50 (Bleomycin; [1]) [µM]	AUC (Bleomycin; [2])	IC50 (Bleomycin; [2]) [µM]	AUC (OSI-930)	IC50 (OSI-930) [µM]	AUC (VNLG/124)	IC50 (VNLG/124) [µM]
NCI-H2110 (non-small cell lung carcinoma, adherent)	0.98	> 5	0.773	0.0799	0.585	0.11	0.861	8.78	0.986	> 20	0.986	> 16	0.985	> 10.2	0.698	11.5	0.361	1.63	0.986	> 10.2	0.986	> 5.12
NCI-H2122 (lung adenocarcinoma, adherent)	0.988	> 5	0.848	0.135	0.263	0.0143	0.92	> 10	0.929	> 20	0.989	> 16	0.985	> 10.2	0.294	0.859	0.238	0.743	0.983	> 10.2	0.985	> 5.12
NCI-H2141 (small cell lung carcinoma, suspension)	0.972	> 5	0.901	> 0.2	0.543	0.0837	0.905	> 10	0.941	> 20	0.974	> 16	0.837	6.57	0.973	> 50	0.813	33.4	0.965	> 10.2	0.976	> 5.12
NCI-H2291 (lung adenocarcinoma, adherent)	0.976	> 5	0.928	> 0.2	0.943	> 1.02	0.865	> 10	0.962	> 20	0.979	> 16	0.981	> 10.2	0.86	> 50	0.968	> 64	0.976	> 10.2	0.976	> 5.12
NCI-H2347 (lung adenocarcinoma, adherent)	0.96	> 5	0.648	0.0353	0.542	0.0856	0.9	> 10	0.975	> 20	0.961	> 16	0.969	> 10.2	0.774	23.9	0.517	4.49	0.927	> 10.2	0.981	> 5.12
NCI-SNU-5 (stomach, suspension)	0.983	> 5	0.513	0.0136	0.722	0.276	0.988	> 10	0.982	> 20	0.982	> 16	0.989	> 10.2	0.777	20.3	0.29	1.01	0.97	> 10.2	0.982	> 5.12
NCI-SNU-16 (stomach, suspension)	0.947	> 5	0.977	> 0.2	0.773	0.353	0.93	> 10	0.979	> 20	0.979	> 16	0.944	> 10.2	0.91	> 50	0.991	> 64	0.988	> 10.2	0.99	> 5.12
NEC8 (testis, adherent)	0.991	> 5	0.513	0.0135	0.281	0.0172	0.989	> 10	0.906	19.9	0.991	> 16	0.932	> 10.2	0.025	< 0.195	0.043	< 0.25	0.973	> 10.2	0.983	> 5.12
NH-12 (neuroblastoma, adherent)	0.979	> 5	0.813	0.125	0.516	0.0711	0.845	8.54	0.864	> 20	0.982	> 16	0.759	3.99	0.384	1.44	0.429	2.5	0.952	> 10.2	0.985	> 5.12
NMC-G1 (glioma, adherent)	0.961	> 5	0.584	0.0224	0.517	0.0721	0.819	7.4	0.849	> 20	0.978	> 16	0.901	> 10.2	0.154	0.196	0.109	< 0.25	0.974	> 10.2	0.973	> 5.12
NOMO-1 (acute myeloid leukaemia, suspension)	0.897	> 5	0.486	0.0114	0.454	0.0471	0.895	> 10	0.865	> 20	0.982	> 16	0.673	2.09	0.712	13.6	0.521	4.61	0.981	> 10.2	0.826	3.69
NOS-1 (osteosarcoma, adherent)	0.949	> 5	0.257	0.0021	0.287	0.0138	0.941	> 10	0.772	9.51	0.978	> 16	0.707	2.83	0.77	23.4	0.381	1.74	0.927	> 10.2	0.925	> 5.12
NTERA-2 cl.D1 (testis, adherent)	0.908	> 5	0.562	0.0184	0.318	0.02	0.689	2.1	0.884	> 20	0.96	> 16	0.838	6.82	0.059	< 0.195	0.026	< 0.25	0.982	> 10.2	0.959	> 5.12
NUGC-4 (stomach, adherent)	0.985	> 5	0.939	> 0.2	0.525	0.0747	0.915	> 10	0.948	> 20	0.985	> 16	0.967	> 10.2	0.82	28.7	–	–	0.966	> 10.2	0.976	> 5.12
NY (osteosarcoma, adherent)	0.987	> 5	0.791	0.0888	0.32	0.0202	0.972	> 10	0.989	> 20	0.986	> 16	0.946	> 10.2	0.507	3.27	0.403	2.17	0.976	> 10.2	0.988	> 5.12
OCI-AML3 (acute myeloid leukaemia, suspension)	0.981	> 5	0.987	> 0.2	0.392	0.0338	0.948	> 10	0.856	12.6	0.981	> 16	0.85	6.11	0.666	8.37	0.875	48	0.887	8.62	0.887	4.28
OCI-AML5 (acute myeloid leukaemia, suspension)	0.987	> 5	0.98	> 0.2	0.226	0.0111	0.622	1.31	0.843	12.4	0.977	> 16	0.371	0.292	0.872	40.5	0.288	1.08	0.931	> 10.2	0.438	0.221
OCI-LY-19 (B-cell lymphoma, suspension)	0.95	> 5	0.544	0.0163	0.298	0.0182	0.913	> 10	0.877	17.4	0.984	> 16	0.317	0.206	0.466	2.55	0.075	< 0.25	0.888	10	0.903	> 5.12
OCUB-M (breast, adherent)	0.974	> 5	0.845	0.117	0.272	0.0161	0.972	> 10	0.783	7.26	0.99	> 16	0.77	3.39	0.563	4.53	0.386	2.04	0.87	7.44	0.911	> 5.12
OE21 (oesophagus, adherent)	0.853	> 5	0.405	0.00621	0.466	0.0498	0.848	> 10	0.973	> 20	0.978	> 16	0.973	> 10.2	0.443	2.05	0.569	6.6	0.971	> 10.2	0.974	> 5.12
ONS-76 (medulloblastoma, adherent)	0.982	> 5	0.48	0.0109	0.456	0.048	0.959	> 10	0.831	14	0.984	> 16	0.87	> 10.2	0.241	0.519	0.325	1.24	0.97	> 10.2	0.978	> 5.12
OS-RC-2 (kidney, adherent)	0.974	> 5	0.669	0.0458	0.415	0.0338	0.863	> 10	0.86	> 20	0.977	> 16	0.926	> 10.2	0.561	4.95	0.479	3.42	0.975	> 10.2	0.978	> 5.12
OV-90 (ovary, adherent)	0.97	> 5	0.476	0.0106	0.468	0.051	0.865	> 10	0.885	> 20	0.86	> 16	0.832	9.25	0.903	> 50	0.481	3.5	0.939	> 10.2	0.974	> 5.12

Source: the supplement of paper PMC4967469
